# Experimental data from the supplement of paper PMC4723716.
# ± gives the uncertainty stated by the source. Over roughly 9,900 compounds, “viability index relative to DMSO control” has its median near 1; the lowest 2% begin near 0.85. The list shows a part of the results.
# Tested on: Plasmodium falciparum NF54 stage V gametocytes
# Assay: viability index relative to DMSO control (fraction); higher = less gametocyte killing
# Settings: 2.5 µM, library set: Broad Institute DOS, incubation time: 72 h
# Outline: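 Gametocytes (P. falciparum NF54, stage V) were treated with compound at 2.5 µM for 72 hr at 37°C in low oxygen, in serum-free medium at 0.75% gametocytemia and 1.25% hematocrit. Counts of 20–70 µm2 red particles, taken from one field per well after MitoTracker Red CMXRos with saponin, were divided by the plate mean of solvent-only wells. This ratio is the viability index.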
row,SMILES,viability index
1,O=C(c1ccccn1)N1CC[C@@H]2[C@H](CO)Nc3ccc(C#Cc4cccnc4)cc3[C@@H]21,1.07 ± 0.017
2,O=C(C[C@H]1C=C[C@H](NC(=O)CCN2CCCCC2)[C@H](CO)O1)Nc1nccs1,1.07 ± 0.062
3,CN1C(=O)c2cc(NC(=O)Cc3cccs3)ccc2OC[C@@H]2O[C@H](CC(=O)N[C@@H]3CCN(Cc4ccccc4)C3)CC[C@@H]21,1.11 ± 0.14
4,Cc1ccccc1-c1ccc([C@H]2[C@@H]3CN(C(=O)Cc4ccncc4)C[C@H]2N3)cc1,1.16 ± 0.053
5,NCC[C@H]1CC[C@H](NC(=O)Cc2ccncc2)[C@H](CO)O1,1.059 ± 0.0073
6,COc1ccc2c3c([nH]c2c1)[C@H](CO)N(C[C@]31CCN(CC1)S(C)(=O)=O)C(=O)c1ccccn1,1.06 ± 0.045
7,CO[C@@H]1CC[C@H]2CCOc3c(C#N)cccc3C(=O)N(C)C[C@H](c3ccccc3)CC(=O)N(C)C[C@@H]1O2,1.01 ± 0.015
8,O=C(NCc1cc(F)cc(F)c1)[C@@H]1[C@@H](CO)[C@@H]2Cn3c(cccc3=O)[C@H]1N2,1.07 ± 0.033
9,O=C(C[C@H]1C=C[C@@H](NC(=O)C2CCC2)[C@H](CO)O1)NC1CCCCC1,1.01 ± 0.033
10,Cc1ccc(CN2CC(=O)N3[C@H](C2)[C@@H](c2ccc(-c4ccccc4F)cc2)[C@@H]3CO)cc1,1.05 ± 0.051
11,COCC(=O)N1C[C@@]2(C1)CN(Cc1ccc3OCOc3c1)[C@@H](CO)c1c2c2ccc(OC)cc2n1C,0.935 ± 0.05
12,CCS(=O)(=O)N1C[C@]2(CCN(Cc3cccc(OC)c3)CC2)c2c([nH]c3cc(OC)ccc23)[C@@H]1CO,1.05 ± 0.15
13,CC(C)c1cccc(NC(=O)C[C@H]2CC[C@H]3[C@@H](COc4ccc(NS(=O)(=O)c5ccccc5Cl)cc4C(=O)N3C)O2)c1,1.14 ± 0.066
14,CCS(=O)(=O)Nc1ccc2c(c1)C(=O)N(C)[C@@H]1CC[C@@H](CC(=O)N[C@H]3CCN(Cc4ccccc4)C3)O[C@@H]1CO2,1.06 ± 0.088
15,N#Cc1ccc(-c2ccc([C@H]3[C@H]4CNCC(=O)N4[C@H]3CO)cc2)cc1,0.939 ± 0.044
16,O=C(NCCc1ccncc1)[C@@H]1[C@@H](CO)[C@@H]2Cn3c(ccc(-c4ccccc4)c3=O)[C@@H]2N1C(=O)C1CC1,1.01 ± 0.08
17,COC(=O)C[C@H]1C[C@H]2c3cc(N)ccc3O[C@H]2[C@H](CO)O1,1.05 ± 0.0071

row,SMILES,viability index
1,C[C@@H]1CN([C@@H](C)CO)C(=O)CCCn2cc(nn2)CO[C@H]1CN(C)C(=O)CCC(F)(F)F,1.07 ± 0.07
2,COc1ccc(CN(C)C[C@H]2Oc3ccc(NC(=O)Nc4ccc5c(c4)OCO5)cc3CC(=O)N([C@H](C)CO)C[C@H]2C)cc1,1.03 ± 0.1
3,COc1ccccc1NC(=O)N1CC(=O)N2[C@H](CO)[C@H](c3ccc(C#CC(C)C)cc3)[C@H]2C1,1.05 ± 0.025
4,O=C(C[C@@H]1C[C@H]2c3cc(NS(=O)(=O)c4ccccc4)ccc3O[C@H]2[C@@H](CO)O1)N1CCOCC1,1.05 ± 0.026
5,C[C@H]1CN([C@@H](C)CO)C(=O)c2ccccc2-c2ccccc2CO[C@@H]1CN(C)C(=O)c1cc(Cl)cc(Cl)c1,0.904 ± 0.034
6,CO[C@H](CN(C)C(=O)c1cc(Cl)cc(Cl)c1)[C@@H](C)CN(C(=O)Nc1ccc(F)cc1)[C@H](C)CO,1.1 ± 0.075
7,CO[C@H]1CN(C)C(=O)c2cc(NC(=O)NC(C)C)ccc2OC[C@@H](C)N(C(=O)CN(C)C)C[C@@H]1C,1.07 ± 0.085
8,COc1cccc(C(=O)Nc2ccc3c(c2)OC[C@@H](C)N(CCc2ccccc2)C[C@@H](C)[C@H](OC)CN(C)C3=O)c1,1.08 ± 0.015
9,CN(C)C(=O)c1cccc(-c2ccc3c(c2)[C@@H]2[C@@H](CCN2Cc2nccs2)[C@@H](CO)N3)c1,0.785 ± 0.07
10,N#C[C@@H]1[C@@H](c2ccc(-c3cccc(F)c3)cc2)[C@@H](CO)N1c1nc(-c2ccccc2)cs1,1.05 ± 0.013
11,C[C@@H]1CN([C@@H](C)CO)C(=O)c2ccccc2-c2ccccc2CO[C@@H]1CN(C)S(=O)(=O)c1cccc(C#N)c1,1.03 ± 0.04
12,CCCNC(=O)Nc1ccc2c(c1)OC[C@H](C)N(S(C)(=O)=O)C[C@@H](C)[C@@H](OC)CN(C)C2=O,1.06 ± 0.013
13,COc1ccc(CNC(=O)C[C@@H]2C[C@H]3c4cc(N(C)C)ccc4O[C@H]3[C@H](CO)O2)cc1,0.926 ± 0.024
14,COCC#Cc1ccc2c(c1)O[C@@H](CN(C)C(=O)C1CCOCC1)[C@@H](C)CN([C@H](C)CO)S2(=O)=O,1.06 ± 0.066
15,CN1C(=O)c2cc(NC(=O)c3cccc(Cl)c3)ccc2OC[C@H]2O[C@@H](CC(=O)NC3CCCCC3)CC[C@H]21,0.946 ± 0.029
16,Cc1ccc(OC(=O)N(C)C[C@@H]2OCc3ccccc3-c3ccccc3C(=O)N([C@@H](C)CO)C[C@H]2C)cc1,0.88 ± 0.0063
17,COCCNC(=O)C[C@@H]1CC[C@H]2[C@@H](COC[C@H](O)CN2S(=O)(=O)c2ccccc2F)O1,1.01 ± 0.032
